PubChem BioAssay (NCI)
Several values for one entry are separate records, joined by “and”; a condition that tells them apart may be missing. Equal values may be shown once.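 Cells were grown in 96-well plates and exposed to each compound for 48 hours at five concentrations; endpoints were interpolated linearly between bracketing concentrations, or set to the highest concentration if not reached. GI50 = concentration required for 50% inhibition of growth. The concentration for full growth arrest is given as TGI.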

Test system: NCI-H322M lung
Assay: NCI tumour cell line growth inhibition, 48 h

Row | Structure (SMILES) | TGI | GI50 [µM]
1 | Cc1ccc(S(=O)(=O)N(CC(O)COc2ccccc2)c2c(F)c(F)cc(F)c2F)cc1 (centres undefined) | 78.6 µM | –
2 | O=C(Nc1ccccc1[N+](=O)[O-])/C(=N/Nc1cccc(Cl)c1)c1c(O)c2ccccc2oc1=O | > 100 µM | –
3 | COc1cc(/C=C/C(=O)c2cccc3ccccc23)cc(OC)c1OC | 26.8 µM | –
4 | COC(=O)C1OC(O[C@H]2CC[C@]3(C)[C@H]4CC=C5[C@@H]6CC(C)(C)CC[C@]6(C(=O)OC)CC[C@@]5(C)[C@]4(C)CC[C@H]3C2(C)C)C(O)C(O)C1O (some centres undefined) | 30.4 µM | –
5 | Cc1cc(N(CCC#N)S(=O)(=O)c2ccccc2)ccc1C=Nc1cccc(C(=O)O)c1 | > 100 µM | –
6 | C[C@H]1CCC/C=C/C2CC(OC(=O)CN(C)C)CC2C(OC(=O)CN(C)C)/C=C/C(=O)O1 (some centres undefined) | 15.5 µM | 0.565
7 | Nc1n[n+]([O-])c2cc([N+](=O)[O-])ccc2[n+]1[O-] | 64.2 µM | –
8 | O=C(O)C1C2C=CC(O2)C1C(=O)NCc1cccnc1 (centres undefined) | > 100 µM | –
9 | CC(C)C[C@H](CC(=O)O)C(=O)N[C@@H](Cc1c[nH]c2ccccc12)C(=O)N[C@@H](C)c1ccccc1 | > 25 µM | > 25
10 | CCO/C(O)=C(/C(=N)N1CCOCC1)C(=O)Nc1cccc(C(F)(F)F)c1 | > 100 µM | –
11 | CCOC(=O)/C(=C/CC/C(C)=C/CC/C(C)=C/CCc1ccoc1)CC(=O)N1CCCCC1 | 4.08 µM | 1.95
12 | CCc1cccc(C(C)C)c1NC(=O)CC1Sc2ccccc2NC1=O (centres undefined) | > 100 µM | –
13 | CCOC(=O)/C(Br)=C1\OC(=O)c2ccccc2-c2ccccc21 | > 100 µM | –
14 | O=C1Cc2c(-c3ccccc3)cc(-c3ccccc3)nc2-c2ccccc2N1 | 29 µM | –
15 | COC(=O)C(=O)C(CC(=O)Nc1cc(Cl)ccc1Cl)C(=O)OC (centres undefined) | > 100 µM | –
16 | Cc1nc2cn3c(c2c(=O)[nH]1)CCCCC3 | > 100 µM | –
17 | O=c1oc2ccc([N+](=O)[O-])cc2nc1/C=C(\O)c1ccccc1 | > 100 µM | –
18 | C/C=C/CC(C(=O)OCC)(N(C)C(=O)OC(C)(C)C)S(=O)(=O)c1ccc(C)cc1 (centres undefined) | > 100 µM | –
19 | O=C1NC(=O)C(C(=O)C(=O)Nc2cc(Cl)ccc2Cl)C(=O)N1 | > 100 µM | –
20 | C/C(=N\Nc1ccccc1)c1sc(-c2nc(C)c(/C(C)=N/Nc3ccccc3)s2)nc1C | 96.9 µM | –
21 | NC(N)=NN=c1c(=O)c2ccccc2c1=O | 31.6 µM | 17.5
22 | CC1=C(C(=O)Nc2cccc(Cl)c2)C(c2ccccc2O)C(C(=O)Nc2cccc(Cl)c2)=C(C)N1 | 48.2 µM | –
23 | COc1ccccc1-n1cnc(N)c1C(=O)c1cc(OC)c(OC)c(OC)c1 | > 100 µM | 9.58
24 | CC(C)N(C(=O)C12C3C4C1C1C2C3C41C(=O)C(C)(C)C)C(C)C (centres undefined) | > 100 µM | –

Row | Structure (SMILES) | TGI | GI50 [µM]
25 | Cc1c(C)c2c(c(C)c1OC(=O)CCC(=O)[O-])CCC(C)(CCCCCCCCCCC[P+](c1ccccc1)(c1ccccc1)c1ccccc1)O2 (centres undefined) | 1.17 µM | 0.309
26 | Cc1cc(S(=O)(=O)/N=C(\N)Nc2cccc(O)c2)c(SCc2ccccc2)cc1Cl | 39.9 µM | 19.5
27 | Cc1cc(C)cc(Nc2nnc3n2S(=O)(=O)c2cc(C)c(Cl)cc2S3)c1 | 60.5 µM | –
28 | Oc1ccc2ccccc2c1CCc1c(O)ccc2ccccc12 | 24.9 µM | –
29 | CCOC(=O)C1(CC(=O)O)CCCC1=O (centres undefined) | > 100 µM | –
30 | O/N=C1/CCCC/C1=C/C=C/c1ccccc1 | 74.7 µM | –
31 | Cc1ccsc1/C=N/NC1=NCCN1 | > 100 µM | –
32 | O=C(CCC(=O)Nc1ccccc1C(F)(F)F)N/N=C1\C(=N\NC(=O)CCC(=O)Nc2ccccc2C(F)(F)F)C(c2ccc3c(c2)OCO3)Oc2ccccc21 (centres undefined) | > 100 µM | –
33 | COc1ccc2[nH]c3cc4c(=O)c5cc(OC)ccc5[nH]c4cc3c(=O)c2c1 | > 100 µM | –
34 | O=CC(OC(=O)c1ccccc1)C(OC(=O)c1ccccc1)C(COC(c1ccccc1)(c1ccccc1)c1ccccc1)OC(=O)c1ccccc1 (centres undefined) | 82.2 µM | 26.5
35 | CCOC(=O)COc1cc(-c2ccccc2F)nc2cc3c(cc12)OCO3 | > 100 µM | –
36 | C=CCn1c(-c2cc(C(C)(C)C)c(O)c(C(C)(C)C)c2)cs/c1=N\C(P(=O)(O)O)P(=O)(O)O | > 100 µM | –
37 | C=C1CCC2CC1C(C(=O)c1c[nH]c3ccccc13)=NC2(C)C (centres undefined) | > 100 µM | –
38 | CN1C(=O)c2ccccc2C(O)(c2ccccc2)C1(O)c1ccccc1 (centres undefined) | > 100 µM | –
39 | Cc1ccccc1NC(=O)CC1C(=O)Nc2ccccc2S1=O (centres undefined) | > 100 µM | –
40 | CC1=C(C(=O)NNC(=O)Cc2ccccc2)CC(C(=O)NNC(=O)Cc2ccccc2)=C(C)N1 | > 100 µM | –
41 | O=C(Nc1ccc(OS(=O)(=O)c2ccc(F)cc2)cc1)C12CC3CC(CC(C3)C1)C2 | > 100 µM | 12.9
42 | C/C(NNC(=O)c1ccccc1O)=C1\C=Nc2ccccc2S1 | > 100 µM | –
43 | COc1ccc2c(c1)CC[C@@H]1[C@@H]2CC[C@]2(C)/C(=N/OCCN3CCCC3)CC[C@@H]12 | 9.69 µM | –
44 | C[C@@H](Nc1nc(N[C@H](C)C(F)(F)F)nc(-c2cccc(Cl)n2)n1)C(F)(F)F | > 100 µM | 46.8
45 | COc1ccccc1-n1cnc2c1NC(C)(C)N=C2C(N)=O | > 100 µM | –
46 | O=C(O)c1cc2ccccc2c(Cc2c(O)c(C(=O)O)cc3ccccc23)c1O | > 100 µM | –
47 | CCCNC1=C2C[C@@H](C)C[C@@H](OC)[C@@H](OC(=O)CCCN)[C@H](C)/C=C(\C)[C@@H](OC(N)=O)[C@H](OC)/C=C\C=C(/C)C(=O)NC(=CC1=O)C2=O | 31.8 µM | –
48 | Cc1ccc(S(=O)(=O)NC(=O)C2S(=O)(=O)OCCOS2(=O)=O)cc1 | > 100 µM | –

Row | Structure (SMILES) | TGI | GI50 [µM]
49 | [N-]=[N+]=CC(=O)C1(C(=O)C=[N+]=[N-])CC1 | > 100 µM | –
50 | COC(CNC(=O)CNC(=O)c1ccc(C(F)(F)F)cc1)OC | > 100 µM | –
51 | Cn1c(N/N=C/c2ccccc2)nc(-c2ccc3c(c2)OCO3)c(C#N)c1=O | > 100 µM | –
52 | CCCCCCCCSC(=O)NCCCC | > 100 µM | –
53 | O=C1c2c(O)cccc2C(C(=O)CCCCCC(=O)C2c3cccc(O)c3C(=O)c3c(O)cccc32)c2cccc(O)c21 | 12.8 µM and 32.4 µM | 6.08
54 | O=S(=O)(O)c1ccc2c(N=Nc3cccc4ccccc34)c(O)ccc2c1 | > 100 µM | –
55 | COc1cccc(/C=N/[N-]C(=O)c2ccncc2)c1[O-].[Mn+2].[OH3+] | > 100 µM | 3.84
56 | COC(=O)C(C(=O)C(=O)Nc1ccc(C)cc1)c1nc2ccc([N+](=O)[O-])cc2[nH]c1=O (centres undefined) | > 100 µM | –
57 | C1=N[C@]23C(=N[C@H](N=C2NCc2ccco2)[C@]24N=CNC2=N[C@H]3N=C4NCc2ccco2)N1 | > 100 µM | 56.8
58 | Cc1cc(OCc2nc(N)nc(N)c2-c2ccc(Cl)c(Cl)c2)ccc1[N+](=O)[O-] | 20.6 µM | –
59 | O=C(O)c1cc(N=Nc2ccc([N+](=O)[O-])cc2)ccc1O | > 100 µM | –
60 | CC(Oc1cc2oc(=O)cc(-c3ccccc3)c2cc1Cl)C(=O)O (centres undefined) | > 100 µM | –
61 | COc1ccc(-n2cc(-c3cc(OC)c(OC)c(OC)c3)nc2SCc2ccc(Cl)cc2)cc1OC | > 100 µM | > 100
62 | CC(=O)Nc1ccc(-c2nnc(SCC(=O)Nc3cccc(C)c3)o2)cc1 | > 100 µM | –
63 | NC(CCSCC(F)(F)F)C(=O)O (centres undefined) | > 100 µM | –
64 | CC(=O)OC1C[C@H]2C(OC(=O)c3ccccc3)C3C4(OC(C)=O)COC4C[C@H](OC(C)=O)[C@@]3(C)C(OC(C)=O)[C@H](OC(C)=O)C(=C1C)C2(C)C (some centres undefined) | > 100 µM | –
65 | Cc1c2cnccc2c(C)c2c1c1cc(O)ccc1n2C(C)C | 4.83 µM | 0.633
66 | CCN(CC)CCNc1c2ccccc2nc2cccc([N+](=O)[O-])c12 | 0.0558 µM and 0.252 µM | 0.0169
67 | CCCC(=O)OCC1OC2OC(C)(C)OC2C2OC(C)(C)OC12 (centres undefined) | > 100 µM | –
68 | CCCCn1c(-c2ccccc2)cs/c1=N\N=C1C=C(C(C)(C)C)C(=O)C(C(C)(C)C)=C1 | > 100 µM | –
69 | CC[C@@]1(O)C(=O)OCc2c1cc1n(c2=O)Cc2cc3cc(Cl)ccc3nc2-1 | 0.459 µM | 0.0415
70 | O=C(Nc1cccc(C(F)(F)F)c1)C(=O)C(C(=O)c1ccc(Cl)c(Cl)c1)C1OC(=O)c2ccccc21 (centres undefined) | > 100 µM | –
71 | Cc1sc2c(c1C)C(=O)c1cccn1-2 | > 100 µM | –
72 | O=S(=O)(C1=CC(S(=O)(=O)c2ccccc2)COC1)c1ccccc1 (centres undefined) | > 100 µM | –

Row | Structure (SMILES) | TGI | GI50 [µM]
73 | CNC(=O)c1cc(Oc2ccc3nc(NC(=O)Nc4ccc(CN5CCOCC5)c(C(F)(F)F)c4)sc3c2)ccn1 | 7.2 µM | 2.33
74 | O=C(NC1CCN(Cc2ccccc2)CC1)c1cc(-c2cccnc2)nc2ccc(Cl)cc12 | > 100 µM | 20.5
75 | CC(=O)N1C(C(=O)NN2CCOCC2)CSC1c1ccccc1 (centres undefined) | > 100 µM | –
76 | N#C/C(=C\c1ccc(O)c(O)c1)C(=O)NCc1ccc(C(F)(F)F)cc1 | 52.7 µM | 15.1
77 | O/N=C1/CCC/C1=C\c1ccccc1 | > 100 µM | –
78 | Cc1ccc(S(=O)(=O)NC(=O)Nc2c(S(N)(=O)=O)cc(S(N)(=O)=O)c(Cl)c2Cl)cc1 | > 100 µM | –
79 | CC[C@H](C)[C@H](NC(=O)N(CCC#N)CCN(CCN(C(=O)N[C@@H](Cc1ccccc1)C(=O)OC)c1ccccc1)C(=O)N[C@H](C(=O)OC)C(C)C)C(=O)OC | 33.6 µM | –
80 | CN(C)c1ccc(/C=C/C(=O)c2cc(C(C)(C)C)c(O)c(C(C)(C)C)c2)cc1 | > 100 µM | –
81 | C[N+]1=C(c2cccnc2/C=N/O)OCC1(C)C | > 100 µM | –
82 | C=C1C(=O)OC2C1CCC(=C)C1CC(O)C(=C)C12 (centres undefined) | 67.9 µM | –
83 | CCN(C(=O)N1CCN(c2cc3c(cc2F)c(=O)c(C(=O)O)cn3C2CC2)CC1)c1nc(-c2ccccc2)cs1 | > 100 µM | 2.86
84 | CCn1cnc(C[C@H](NC(=O)[C@H](CCCCNC(=O)Nc2cc(C(F)(F)F)cc(C(F)(F)F)c2)NC(=O)Nc2cc(C(F)(F)F)cc(C(F)(F)F)c2)C(=O)OC)c1 | > 10 µM | 6.8
85 | Cc1nc2ccccn2c1NC(=O)NN1C(=O)CSC1c1ccc(Cl)cc1 (centres undefined) | > 100 µM | > 100
86 | O=c1cc(-c2ccc(Cl)cc2)[nH]c2ccccc12 | > 100 µM | > 100
87 | Oc1ccc(-c2c3ccccc3c(-c3ccc(O)cc3)c3ccccc23)cc1 | > 100 µM | –
88 | CCC(=O)OC1CCn2c1nc1c2C(=O)C(C)=C(NC(C)=O)C1=O (centres undefined) | 18.5 µM | –
89 | CCCCCC/C=C/C#CCCCCCCCC(=O)O | > 100 µM | –
90 | NC(Cc1ccccc1)C(=O)OCN1C(=O)C2C3C=CC(C2C1=O)C1C2C(=O)N(COC(=O)C(N)Cc4ccccc4)C(=O)C2C31 (centres undefined) | > 100 µM | –
91 | C[C@@H]1C[C@H]2OC(=O)[C@@]3(C)CCC[C@@](C)([C@@H]23)[C@@]1(O)CCc1ccoc1 | > 100 µM | –
92 | COc1ccc(C(=O)/C=C/c2sc(Cl)nc2Cl)cc1 | 10.7 µM | 2.97
93 | CC12Nc3ccccc3C1=C(c1ccccc1)CC1C(=O)OC(=O)C12 (centres undefined) | > 100 µM | –
94 | O=[N+]([O-])c1cc(Br)cc2cc(Cl)cnc12 | > 100 µM | –
